Experimental data from PubChem BioAssay AID2147 (National Center for Advancing Translational Sciences (NCATS), 2009).
Out of some 230,000 compounds screened, about 3,600 (1.6%) were called active. This list was built around the results that the source calls inconclusive (neither active nor inactive); the mix of calls is not that of the screen. The call rests on the fitted dose curve; in most records, active means well fitted inhibition curve with a large enough effect (not every such curve was filed as active); inconclusive means small, poorly fitted or top-dose-only effect, or another doubt; inactive means no such curve, though single readings can be large or run the other way. A potency beside an inconclusive call is a rough fit, not a confirmed value.

target: Lysine-specific demethylase 4E (Homo sapiens) (UniProt B2RXH2); test: qHTS Assay for Inhibitors of Human Jumonji Domain Containing 2E (JMJD2E); settings: JMJD2E catalytic domain, FDH-coupled NADH fluorescence (FDH is formaldehyde dehydrogenase); series mostly up to 57.1 µM
Further: nearly all actives have a fitted effect of over 50% in size.
Potency means the concentration at half of the fitted maximal effect; tags describe the fitted curve by direction and shape.

Sequence of UniProt B2RXH2 (B2RXH2 whole entry, looked up, the tested form may be a part): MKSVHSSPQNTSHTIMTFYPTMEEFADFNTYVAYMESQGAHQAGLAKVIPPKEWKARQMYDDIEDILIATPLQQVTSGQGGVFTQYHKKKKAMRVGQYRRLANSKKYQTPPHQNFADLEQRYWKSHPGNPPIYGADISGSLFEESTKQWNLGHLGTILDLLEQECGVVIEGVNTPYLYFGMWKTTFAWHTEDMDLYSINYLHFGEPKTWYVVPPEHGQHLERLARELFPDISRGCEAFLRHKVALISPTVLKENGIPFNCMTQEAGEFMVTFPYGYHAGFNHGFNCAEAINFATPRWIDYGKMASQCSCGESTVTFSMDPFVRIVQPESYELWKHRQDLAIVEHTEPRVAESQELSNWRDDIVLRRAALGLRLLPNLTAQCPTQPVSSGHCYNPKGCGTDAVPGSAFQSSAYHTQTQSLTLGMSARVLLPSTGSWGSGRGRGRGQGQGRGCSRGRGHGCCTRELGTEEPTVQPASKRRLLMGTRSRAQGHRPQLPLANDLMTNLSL

| Compound | Potency |
| --- | --- |
| CN1CCC2(CCN3CCc4c(oc5ccccc45)C3C2)N(C)C1=O (stereo unspecified) | inactive |
| O=c1c2cccnc2n(-c2ccccc2)n1Cc1c(Cl)cccc1Cl | inconclusive: 28.2 µM [inhibitor, partial curve] |
| COc1ccc(C2CC(c3ccc(OC)c(OC)c3)=NN2S(C)(=O)=O)cc1 (stereo unspecified) | inconclusive: 39.8 µM [inhibitor, single point] |
| NC(=S)N/N=C\c1c2ccccc2cc2ccccc12 | inactive |
| CCCc1cnc(NCCNCC(O)COc2ccc(Cl)c(Cl)c2)nc1 (stereo unspecified) | inactive |
| Cc1cccc(C(=O)Oc2ccc(/C=N/O)cc2)c1 | inconclusive: 39.8 µM [inhibitor, single point] |
| COc1cccc(C2NC(=O)c3ccccc3O2)c1OC (stereo unspecified) | inconclusive: 39.8 µM [inhibitor, single point] |
| O=C(O)COc1cccc(-c2ocnc2-c2nc(-c3ccccc3)c(-c3ccccc3)o2)c1 | inconclusive: 14.1 µM [inhibitor, partial curve] |
| Cc1ccc(OCCN2C(=O)c3ccccc3C2=O)c(C)c1 | inactive |
| COc1ccc(NC(=O)CC2C(=O)N(C)C(=S)N2CCc2ccc(F)cc2)cc1 (stereo unspecified) | inactive |
| Cc1nc([N+](=O)[O-])c(C(=O)OCc2ccccc2)n1C | inactive |
| CCN(CC)S(=O)(=O)c1ccc2c(c1)C(=NO)c1cc(S(=O)(=O)N(CC)CC)ccc1-2 | inconclusive: 10 µM [inhibitor, partial curve] |
| CCNC(=O)CSc1nnc(-c2cccs2)o1 | inconclusive: 35.5 µM [inhibitor, single point] |
| CCCn1c(=O)c(C(=O)NCc2ccccn2)c(O)c2ccccc21 | inconclusive: 28.2 µM [inhibitor, single point] |
| O=C(C[n+]1ccc(C(=O)NCc2ccccc2)cc1)c1ccc(OC(F)F)cc1 | inconclusive: 39.8 µM [inhibitor, single point] |
| COc1ccc(CC(=O)Nc2ccc(-c3noc(-c4ccccc4OC)n3)cc2)cc1 | inconclusive: 39.8 µM [inhibitor, single point] |
| Cc1[nH]c2c(ccc3cccnc32)c1C | inconclusive: 39.8 µM [inhibitor, single point] |
| Cc1cccc(N2CCN(C3=NC(=O)/C(=C\c4cn[nH]c4-c4ccccc4)S3)CC2)c1 | inconclusive: 35.5 µM [inhibitor, single point] |
| O=C1NCC(c2ccccc2)C1C(=O)N/N=C\c1ccc(-c2ccc(Cl)c(Cl)c2)o1 (stereo unspecified) | inconclusive: 39.8 µM [inhibitor, single point] |
| CC1(C)CC2CC(C)(CN2Cc2c(O)ccc3ccccc23)C1 (stereo unspecified) | inconclusive: 28.2 µM [inhibitor, partial curve] |
| Cc1cc(C)n(S(=O)(=O)c2ccc(C(C)(C)C)cc2)n1 | inactive |
| COC(=O)/C(=N/Nc1ccccc1Cl)Sc1nnc(C(O)c2ccccc2)n1-c1ccccc1 (stereo unspecified) | inactive |
| O=C(c1ccc(C(F)(F)F)cc1)C1CCCN(C(=O)CCc2cnccn2)C1 (stereo unspecified) | inconclusive: 39.8 µM [inhibitor, single point] |
| COc1ccc(C(=O)N(CN2CCCC2=O)c2nccs2)cc1OC | inconclusive: 39.8 µM [inhibitor, single point] |

| Compound | Potency |
| --- | --- |
| CCOC(=O)c1cc(C)[nH]c(=S)c1C#N | active: 17.8 µM |
| O=C(CSc1ncn[nH]1)c1cccc([N+](=O)[O-])c1 | active: 7.94 µM |
| COC(=O)c1sccc1NC(=O)COc1ccccc1Cl | inactive |
| O=C(CCCOc1ccc(Cl)cc1Cl)NCC1CCCO1 (stereo unspecified) | inactive |
| O=C(O)CN1C(=O)/C(=C\c2cn(CC(=O)N3CCOCC3)c3ccccc23)SC1=S | inconclusive: 39.8 µM [inhibitor, single point] |
| COc1ccc(C2C(C#N)=C(N)N(Nc3ccccc3)C3=C2C(=O)CC(C)(C)C3)cc1C (stereo unspecified) | inconclusive: 3.98 µM [inhibitor, partial curve] |
| CC(C)(C)c1ccc(COc2ccsc2C(=O)O)cc1 | inactive |
| CC1Oc2ccccc2C=C1/C=N\NC(=O)c1cccnc1 (stereo unspecified) | inconclusive: 39.8 µM [inhibitor, single point] |
| Cc1ccccc1NC(=O)Nc1nc2ccc(S(C)(=O)=O)cc2s1 | inconclusive: 39.8 µM [inhibitor, single point] |
| CCN(CC)S(=O)(=O)c1ccc(-c2csc(C)n2)s1 | inconclusive: 39.8 µM [inhibitor, single point] |
| CC1CCc2c(sc(NC(=O)C3c4ccccc4Oc4ccccc43)c2C(N)=O)C1 (stereo unspecified) | inconclusive: 31.6 µM [inhibitor, partial curve] |
| CCOC(=O)c1c(-c2ccc(OC)cc2)csc1NC(=O)CCN1C(=O)c2ccccc2C1=O | inactive |
| CCOC(=O)c1nn(-c2ccccc2)c(=O)cc1SC1CCCCC1 | inactive |
| Cc1cc(C)n(-c2cc(Cl)cc(Cl)c2)c(=O)c1C#N | inconclusive: 39.8 µM [inhibitor, single point] |
| CCCCNC(=O)c1cc2c(C)cc(C)cc2[nH]1 | inconclusive: 28.2 µM [inhibitor, partial curve] |
| O=C(NCc1ccco1)C1CCCN(S(=O)(=O)c2ccc(-n3cnnn3)cc2)C1 (stereo unspecified) | inconclusive: 39.8 µM [inhibitor, single point] |
| O=C(Oc1ccc(-c2ccccc2)cc1)N1CCCCC1 | inactive |
| CCOC(=O)C1(CCCc2ccccc2)CCN(C(=O)c2cnn(CC)c2)CC1 | inconclusive: 28.2 µM [inhibitor, partial curve] |
| CC(C)OC(=O)c1c(NC(=O)c2ccco2)sc2c1CCCCC2 | inconclusive: 25.1 µM [inhibitor, partial curve] |
| COC(=O)Cn1c2ccccc2c2nc(=O)cc(C)n21 | inconclusive: 28.2 µM [inhibitor, single point] |
| Cc1nn(-c2ccccc2)c2sc(-c3n[nH]c(=S)o3)cc12 | inconclusive: 31.6 µM [inhibitor, partial curve] |
| Cc1cccc(N2CCN(C(=O)Cc3ccc(-n4c(=O)[nH]c5ccsc5c4=O)cc3)CC2)c1C | inconclusive: 8.91 µM [inhibitor, single point] |
| O=S(=O)(c1ccc(Cl)cc1)N1CCC(N2CCCCCC2)CC1 | inactive |
| COc1ccc(C(=O)/C=C/Nc2ccc(S(N)(=O)=O)cc2)cc1OC | inconclusive: 25.1 µM [inhibitor, partial curve] |

| Compound | Potency |
| --- | --- |
| CN(Cc1cc2ccccc2[nH]c1=O)C(=O)COc1ccccc1 | inconclusive: 31.6 µM [inhibitor, single point] |
| C=C(C)C(=O)Nc1cccc(C2=NOC3(C2)C[C@@H](C(N)=O)N(C(=O)C2(C)CC2)C3)c1 (stereo partly specified) | inactive |
| CC1(C)CC(=O)C(C2C3=C(CC(C)(C)CC3=O)Oc3ccc4ccccc4c32)C(=O)C1 (stereo unspecified) | inactive |
| COC(=O)c1cc2nc(-c3ccccc3)cc(C)n2n1 | inconclusive: 28.2 µM [inhibitor, partial curve] |
| COc1cccc(CNC(=O)CCC2CCCN(C(=O)Cc3ccccc3F)C2)c1 (stereo unspecified) | inactive |
| O=C(O)c1ccccc1-c1nc(-c2ccccc2)c(-c2ccccc2)[nH]1 | inconclusive: 15.8 µM [inhibitor, partial curve, poor fit] |
| CCOC(=O)c1c(-c2ccccc2)csc1NC(=O)c1nn(CC)cc1Br | inconclusive: 35.5 µM [inhibitor, partial curve] |
| CC(=O)N(Cc1cc2c(C)cc(C)cc2[nH]c1=O)C1CCCCC1 | inconclusive: 28.2 µM [inhibitor, single point] |
| O=C(CCCn1c(=O)[nH]c2ccsc2c1=O)N1CCN(c2ccccn2)CC1 | inconclusive: 39.8 µM [inhibitor, single point] |
| Cc1ccc(C(=O)Nc2ccc(C(=O)N/N=C/c3c[nH]c4ccccc34)cc2)cc1 | inconclusive: 35.5 µM [inhibitor, single point] |
| Cc1nc2c(-c3ccc(F)cc3)c(C)nn2c(C)c1CCC(=O)NCc1ccco1 | inconclusive: 39.8 µM [inhibitor, single point] |
| Cc1cccc(-n2ncc3c(NCCCO)ncnc32)c1 | inconclusive: 28.2 µM [inhibitor, partial curve] |
| CCOc1cc(CNc2ccc(N3CCN(C(C)=O)CC3)cc2)cc(Br)c1OC | inconclusive: 28.2 µM [inhibitor, single point] |
| COc1ccccc1NC(=S)N(Cc1ccco1)Cc1cc2cc(C)cc(C)c2[nH]c1=O | inactive |
| CC(=O)Nc1ccc(CN2CCc3c([nH]c4ccccc34)C2c2ccccn2)cc1 (stereo unspecified) | active: 25.1 µM |
| CC(=O)Nc1nnc(-c2ccccn2)o1 | inconclusive: 15.8 µM [inhibitor, partial curve] |
| CCCC1c2ccc(C)n2CCN1C(=O)Nc1ccc(F)cc1 (stereo unspecified) | inconclusive: 25.1 µM [inhibitor, partial curve] |
| Cn1cc(Br)c(-c2cccc(N3C(=O)CCCC3=O)c2)n1 | inactive |
| Nc1ncncc1-c1ccc2ccccc2c1 | inconclusive: 28.2 µM [inhibitor, single point] |
| ClCc1csc(N/N=C/c2cccs2)n1 | inconclusive: 39.8 µM [inhibitor, single point] |
| Cc1[nH]c2ccc(-c3n[nH]c(=S)n3-c3ccccc3)cc2c1C | inconclusive: 28.2 µM [inhibitor, partial curve] |
| COC(=O)c1ccccc1NC(=O)C1CCN(C(=O)c2ccc(OC)cc2)CC1 | inconclusive: 39.8 µM [inhibitor, single point] |
| CC(C)(C)NC(=O)NC(=O)COC(=O)c1cccc(NS(=O)(=O)c2ccc(F)c(F)c2)c1 | inactive |
